Consider 22 molecules from publication PMC12136788.

The list shows a part of the results.

The chains are these.
B1: 59389766_59402276_1209_3pUTR_ENSMUSG00000074746_ENSMUST00000099274|mouse|control|control (ssRNA)
RNA: GGGAGUUCUACAGUCCGACGAUCUGUUUUUCUUCCCAAACACCACUGCUCAGCUCAAGUGUGCAAUGAACAUUUGUUUCUCUGUCAUAGGAUCCAAAAAUGAAUAACCUGCUACAUUCUAACAAUGUAACUUUAAGCCGGCCUCAACAGAGGAUUGAGCAUCA
B2: 139305153_139306530_102_CDS_ENSG00000165688_ENST00000371717|human|control|control (ssRNA)
RNA: GGGAGUUCUACAGUCCGACGAUCUACUCCAGGUAAGGGAGAAGAGAGGGGGAUGUUGGGAUAGGCACCACCACUACUAAACCGUCUGUACGCAGGAGGUCCAAACCUCAGCCGCGAACAGCCCCAAGAACCCGAGCCCCGCAGCAACAGAGGAUUGAGCAUCA
B3: chr19:8913615:8913616:-_ENSMUSG00000071658_ENSMUST00000096259|mus_hu|mus_mus_mus_hu_False|8_38 (ssRNA)
RNA: GGGAGUUCUACAGUCCGACGAUCAGGGUACCAAAACCUUCUGCCUGAAAUGGGUGCCCCACCCAGUAGGGAGUUGCAGCUGAAAGUAUCUGAUGCACUGACAGUUACUAUACGAAAGGAGGCCCCUGAUGCUCAGAAGGCCAGCAACAGAGGAUUGAGCAUCA
B4: chr1:193065829:193065830:-_ENSG00000023572_ENST00000367439|hu_hu|motif|central (ssRNA)
RNA: GGGAGUUCUACAGUCCGACGAUCUUUUUUUAAAUAACACUGAUGAACUAGUGGGAGCAAUUUUCCUUCUUUGUGAAGCCGGUGAGUGUCAGUUGCACCUCCAAUAAAAGUACCAUUGACAAAUAUUCUUGGAACAGUUCUUUCCAACAGAGGAUUGAGCAUCA
B5: 28694835_28713128_1523_3pUTR_ENSMUSG00000048271_ENSMUST00000114884|mouse|control|control (ssRNA)
RNA: GGGAGUUCUACAGUCCGACGAUCUGGGGGUGGGGCUCUCCACUGGUCCUGGAGAGGAAGUCUAGGUGGCUGGUUAAAACUGUUGGGAACAGGUCCAGGUGUGUGCUGUGGAAAUUCUGGAGGGCCUGGAAAUCUUUGGGGUCCCAACAGAGGAUUGAGCAUCA
B6: chr14:34224135:34224136:-_ENSMUSG00000021936_ENSMUST00000111945|mus_mus|motif|central (ssRNA)
RNA: GGGAGUUCUACAGUCCGACGAUCCUUUAAAUUCUGGUAUCGUUUUAGGACUGUGAAUGUAGAAUCUCCAAUCUCGGCACGGUAAAAAUUGUUGUCACGUUUGCUUCUGCUCAUGAUGGCAAGCAAUUAGUCUAAUGGCUUCAUCAACAGAGGAUUGAGCAUCA
B7: chr20:60962932:60962933:+_ENSG00000171858_ENST00000343986|hu_mus|FALSE|FALSE (ssRNA)
RNA: GGGAGUUCUACAGUCCGACGAUCAGAAUCAUCUGACUCGCCCAUCCUGCGAAUGGCCCCGCAGAUGCCAUAGGUUUUAAACUGGCCAUUAAACCGGCCUGUGGUCCUAUCAACCUCGGCCACGUUCAUCUGGAUGGACGCGUGCAACAGAGGAUUGAGCAUCA
B8: chr7:65705475:65705476:+_ENSG00000169902_ENST00000304842|hu_hu|hu_hu_hu_mus_True|18_108 (ssRNA)
RNA: GGGAGUUCUACAGUCCGACGAUCUCUAUCCGGUGAUGGCACUCCAUGGCAUGCUGGCCCAGGUAAAACACGGUCACAGAACUAAUCACCAGACACGCCAAGAGUAAGUUCUGCUUCAGCUUUCCAACCAUCUUGAUGUGGUUACAACAGAGGAUUGAGCAUCA
B9: chrX:70776531:70776532:+_ENSG00000147162_ENST00000373719|perfect_dup|motif|central (ssRNA)
RNA: GGGAGUUCUACAGUCCGACGAUCCUGCUGCAGUACACUUGCUAAAUUUGAAUGGGCAGCAGCAAACUCUGGGAAGACUUCGGAUGCUUUACGAUACAAGCGAACUGCCUCUUCAAUGUUUCCCUGUUCUCGUUUGAUAUUGGCCAACAGAGGAUUGAGCAUCA
B10: chr7:112906983:112906984:-_ENSMUSG00000036862_ENSMUST00000078482|mus_hu|FALSE|FALSE (ssRNA)
RNA: GGGAGUUCUACAGUCCGACGAUCGGGGGAGACAAUAGGAGUCCCUGGGGGCGCAUUCUCACGAAUCGUAGCCUCACUGCUAGCCCGGGGAAAGCGGGGUCCACGCUCAGCUUCCCCCUGCAGUCCAACAAUGAUCACACCAGUCAACAGAGGAUUGAGCAUCA
B11: chr7:44244176:44244177:+_ENSG00000106636_ENST00000223369|hu_mus|hu_hu_hu_mus_False|38_58 (ssRNA)
RNA: GGGAGUUCUACAGUCCGACGAUCACUGUCGCUCCGGACGUAGACAUGGCAAAGAUACUCUUGUUCUUUGACAGAAGCUCUAGUGCCUUUCCCCGAGCGCUCCACAAUCAGUUGACUUGUAAAGGUCAUGAAUUCCUGCACACUCAACAGAGGAUUGAGCAUCA
B12: 67696332_67698441_936_CDS_ENSG00000111530_ENST00000540319|human|control|control (ssRNA)
RNA: GGGAGUUCUACAGUCCGACGAUCGGUCUUCACACUUUUUUCUUUCAUCUGUUUGUGAAGAGCUUUAACAAUGUUGGGAACCUGACUCUGAAGCAUUGUUAAAGGUGUUUCUCCCUGCUCCAUUGCAUCAGGGUCACAUAGCCACAACAGAGGAUUGAGCAUCA
B13: chr7:54823571:54823572:-_ENSG00000132432_ENST00000352861|hu_mus|hu_hu_hu_mus_False|8_28 (ssRNA)
RNA: GGGAGUUCUACAGUCCGACGAUCUCCCAUGAUAGCAAAUCCUAUAGCUGUAGCCAUGGCAAUCUUCUGGAAUUCUUUUCUGUCGGGUUUGGUGCAUCUUUUAACCAGCCGAAUGGAGUCCUUUACAAACUGCCGACUGGGCUCCAACAGAGGAUUGAGCAUCA
B14: chr9:66219948:66219949:+_ENSMUSG00000038664_ENSMUST00000042824|mus_mus|FALSE|FALSE (ssRNA)
RNA: GGGAGUUCUACAGUCCGACGAUCCUGUUUCACUUUGCCUUUGUCAUGGUACUUAUUAGAAAGUGCAUAAAAGACACGUUGGAGUACAAGCAGUCGUUUUCUUAGCGCCCCAGCAAAUGGAGAAUCUGAACAUACCAUCUUUGCCAACAGAGGAUUGAGCAUCA
B15: chr19:33076771:33076772:+_ENSG00000105185_ENST00000590247|hu_mus|motif|central (ssRNA)
RNA: GGGAGUUCUACAGUCCGACGAUCCGCCAUCUGUAUAAGGUAGUUCUCCACUGCUUUAGUUUUUUCAGGCUUUACAAGUGCGGAGUUACUUAAUCUGGCCCGGGCUGACUGAUCCAGAACUUGGGCUAAGAUACUGUUUCUCAUCAACAGAGGAUUGAGCAUCA
B16: chr18:211299:211300:+_ENSG00000101557_ENST00000383589|hu_hu|FALSE|FALSE (ssRNA)
RNA: GGGAGUUCUACAGUCCGACGAUCUCUGGAUUAUAGAAAUGAUCAACAAAUAACAUUUAUUUUCACAUCUAAGCAUAAAUACUAAAAUGAAGAUUACUGUUCACUUUCCUCUUCCAUUAUUUCAACUCUGCGAGGCCCAUAGAGCAACAGAGGAUUGAGCAUCA
B17: chr2:217002811:217002812:+_ENSG00000079246_ENST00000392132|hu_hu|FALSE|FALSE (ssRNA)
RNA: GGGAGUUCUACAGUCCGACGAUCCAAGGAUGAAAACAUGUAUUGCCGCAAGUCUUCCAUGAAAGGCAGCUGCACAUACACUAAACACUCAUAGUUAUGCUUGAUAUGAGGAAAAGCCACGCCGACUUGAGGAUUAGCUCUUUUCAACAGAGGAUUGAGCAUCA
B18: chr8:117878989:117878990:-_ENSG00000164754_ENST00000297338|hu_hu|hu_hu_hu_mus_True|58_98 (ssRNA)
RNA: GGGAGUUCUACAGUCCGACGAUCCCAGAGGCCCUCGUUUACUGAGAACAAAAUGUGCGUAGAACAUUUUUCUUAUUGGCUAUGAAAUAAGAAGAAACCUGGAUCUCGGCGGGGAGCCGGGAGGGGUGGGUGGCCCGGGGAGGGCAACAGAGGAUUGAGCAUCA
B19: chr4:25749455:25749456:-_ENSG00000091490_ENST00000264868|hu_hu|hu_hu_hu_mus_False|1_18 (ssRNA)
RNA: GGGAGUUCUACAGUCCGACGAUCGCACUAUGACCUCUAGAAAAAUCCACAGGGGGAAAAAAUGUAAACCAAUGUACAAUGUUAUCGCCUUCCCUGUGUGUGGAGUGUUUGUCUCAAUAUUUCAAGGAGCUGCUGGACUGCUAGCAACAGAGGAUUGAGCAUCA
B20: chr11:121174221:121174222:+_ENSG00000109929_ENST00000392789|hu_hu|FALSE|FALSE (ssRNA)
RNA: GGGAGUUCUACAGUCCGACGAUCUGUUGCACAGAAGAAAUAAAGGAUGUAAGCACCAACAUUUGUUACAAUCAGAAGACUAAUAGCUUGUCGGAAGAUGUCAUCUUCUGGCCAUGUGGCUGGAUACACGUAUGGUGUAAAAAACAACAGAGGAUUGAGCAUCA
B21: chr16:94690093:94690094:+_ENSMUSG00000040785_ENSMUST00000117648|mus_hu|mus_mus_mus_hu_True|8_28 (ssRNA)
RNA: GGGAGUUCUACAGUCCGACGAUCGGGCUGGGAUGACGGACACACAGCCUCGAUUCCAGGGGGAAAAAGUCUUAGUCGAUACUAAUUAAAAAGUGUUAAUGAUUUUUAUUACCAAAAUUACAUCUAUUUGAAUCAUAAAGCAAACAACAGAGGAUUGAGCAUCA
B22: 174012945_174013065_346_3pUTR_ENSMUSG00000026553_ENSMUST00000135192|mouse|control|control (ssRNA)
RNA: GGGAGUUCUACAGUCCGACGAUCUCUUCGUCUCGAAUUUGGUUAGCAUCCUUCAGGCCUCGGGCUCCUAGGUCAGGUUAGCGGGUCCCGCCGCUCCCGGUGGCACUCCCAAGGCUUCCACGUCAGCUACUCCCGGGUCGCGGCCAACAGAGGAUUGAGCAUCA

In this experiment the target is T1, UNK ZnF1-3 (human, UniProt Q9C0B0 31-174).
T1 sequence: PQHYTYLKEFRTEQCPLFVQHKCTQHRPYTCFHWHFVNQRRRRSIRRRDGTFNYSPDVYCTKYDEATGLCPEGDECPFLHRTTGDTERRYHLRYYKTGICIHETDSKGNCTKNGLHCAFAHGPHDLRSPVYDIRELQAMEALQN
Briefly: nsRBNS (natural sequence RNA bind-n-seq); RBNS binding buffer (assumed for nsRBNS): 25 mM Tris pH 7.5, 150 mM KCl, 3 mM MgCl2, 0.01% Triton X-100, 500 ug/ml BSA, 20 U/ml SUPERase-In, 4 C; UNK is unkempt and MSI1 is Musashi-1; names of the RNAs are library labels; protein concentration not given here; high values mean tight binding.
In turn, B1 gave a binding signal of 0.858 enrichment R.

The molecule B2 displayed a binding signal of 1.63 enrichment R.

Turning to B3, the binding signal turned out to be 0.756 enrichment R.

B4 yielded a binding signal of 1.27 enrichment R.

On to B5, for which the binding signal stood at 1.6 enrichment R.

In turn, B6 registered a binding signal of 0.68 enrichment R.

B7 yielded a binding signal of 0.281 enrichment R.

B8 gave a binding signal of 0.54 enrichment R.

B9 came in with a binding signal of 0.919 enrichment R.

In turn, B10 registered a binding signal of 0.809 enrichment R.

As to B11, the binding signal was found to be 0.718 enrichment R.

B12 registered a binding signal of 0.43 enrichment R.

B13 returned a binding signal of 0.781 enrichment R.

B14 showed a binding signal of 1.16 enrichment R.

B15 showed a binding signal of 0.632 enrichment R.

Turning to B16, the binding signal stood at 1.2 enrichment R.

Molecule B17 showed a binding signal of 0.458 enrichment R.

Consider B18, for which the binding signal worked out at 1.67 enrichment R.

For B19, the binding signal was 1.09 enrichment R.

For the molecule B20, the binding signal turned out to be 1.07 enrichment R.

In turn, B21 gave a binding signal of 1.02 enrichment R.

B22: the binding signal came out at 0.79 enrichment R.
